Results taken from article PMC12136788.
The other results are listed elsewhere or left out.

T1: UNK ZnF1-3 (human, UniProt Q9C0B0 31-174)
T1 sequence: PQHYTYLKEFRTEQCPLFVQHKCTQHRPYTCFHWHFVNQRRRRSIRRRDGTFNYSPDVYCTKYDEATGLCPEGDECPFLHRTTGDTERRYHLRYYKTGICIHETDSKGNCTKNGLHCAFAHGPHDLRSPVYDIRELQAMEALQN

B1: chr3:90056536:90056537:+_ENSMUSG00000052310_ENSMUST00000015467|mus_mus|FALSE|FALSE (ssRNA)
RNA: GGGAGUUCUACAGUCCGACGAUCCAGCUUGUCUCUGAGAUGUACUGCCUGGCCUCUGACUGUAGCAGUCUGCCUCCUUCUAAUGUCCCUGACCACGUCUGUAGUAACUUCGCUAUCUCUUAUUCUUUGGGUCUGGGGCUAGCCCAACAGAGGAUUGAGCAUCA
B2: chr2:29016751:29016752:+_ENSG00000213639_ENST00000296122|perfect_dup|FALSE|FALSE (ssRNA)
RNA: GGGAGUUCUACAGUCCGACGAUCUUUAGCAAAAAAUUCAUAUCCAUCUUCCACCACCUGAUGAGCUCGACAAAUCAAAUCUAAAUCAUGACGAUUCAGAAAUUUACUGACUACAUCAGCUCCAAAAGUAAAGGAAACACCACGCAACAGAGGAUUGAGCAUCA
B3: chrX:17831648:17831649:+_ENSMUSG00000037369_ENSMUST00000044484|mus_mus|FALSE|FALSE (ssRNA)
RNA: GGGAGUUCUACAGUCCGACGAUCAGUGGACUUAGGAGAAGGUGUUGCUGUGGAAAUGGCUGAAGAUGGUGAAGAGGCAACAGAAUUAUCAGUCUUUGUAUGGACAGUUGGGUGGAUGUUAUUGACUUUGUCACAGGUUCCAGGCAACAGAGGAUUGAGCAUCA
B4: chr1:150204246:150204247:-_ENSG00000143401_ENST00000314136|hu_mus|motif|central (ssRNA)
RNA: GGGAGUUCUACAGUCCGACGAUCAAAGGUGUCAUUCAGGCCUUCGAUUUCCCCAUUGACACACAAGCAAUUAUCGAGGACGGACUCUGUCACCUCCUCCGGGGCUCUGUUCUUCAACUCCAUGUUAAUCUUCUUCUUCAUCUCCAACAGAGGAUUGAGCAUCA
B5: chr1:225611761:225611762:-_ENSG00000143815_ENST00000272163|hu_mus|hu_hu_hu_mus_True|28_98 (ssRNA)
RNA: GGGAGUUCUACAGUCCGACGAUCCCAGGCCAUCGGCCUCUUACCACUUCACCCUCAACAAACUUCCUACUUGGCAUUUUCUAAAAUUAGUCUGGCCGCGCUCCGGCCGGUGACACGGCCACUCCAGGACAGUCACCAGCAGCCCAACAGAGGAUUGAGCAUCA
B6: chr7:138189096:138189097:+_ENSG00000122779_ENST00000415680|hu_mus|motif|central (ssRNA)
RNA: GGGAGUUCUACAGUCCGACGAUCAGACUUUUCUACUGUACUACUAGGAACUUCAGUGGUGUCCUUCACAAAAAAGUUGUCGGUGAUGUGUCUCUCAGCACACUCUUGACUGCAAACUGGGCAUCGAAUGACUCCAACUUGGGUCAACAGAGGAUUGAGCAUCA
B7: chr4:109034340:109034341:+_ENSMUSG00000028552_ENSMUST00000102729|mus_hu|motif|central (ssRNA)
RNA: GGGAGUUCUACAGUCCGACGAUCCUCUUCUCUAGCUUUUGCCAAUUCUUCUUCGUAAGUGGAGAUCUGCGAUUCCUGACGGGUUAAUUCAGCUUUCAGAGAAGAGAUCAGUUGGGCCUCCUCAGCACAUUUCUUUCUGACUUCCAACAGAGGAUUGAGCAUCA
B8: chr2:62103298:62103299:-_ENSG00000115484_ENST00000544079|hu_mus|FALSE|FALSE (ssRNA)
RNA: GGGAGUUCUACAGUCCGACGAUCCAGGAUAGACUUCUGUAUGAGAAGGACAUUACAUCCUGUUUUCUUAAUUUGCUUCACCAAAUUUAAAAUAUAGGCUCUCUCCUCUCGAAGCACUCGAUCCAUCUGGGCAUAGUCAGAUACCAACAGAGGAUUGAGCAUCA
B9: chr22:19452774:19452775:-_ENSG00000070010_ENST00000399523|hu_hu|hu_hu_hu_mus_False|8_98 (ssRNA)
RNA: GGGAGUUCUACAGUCCGACGAUCCUUCUCAUUGUAGUUGAUGGCAAUCACAUCUCCAGUCGUCAGACAGGCGAAGUUUCUCAAUGCAUUUUCUAAUACCGCUUUAGGGUUGGUAAUAUCCAGGAAGUCAGGGCUCUGAGGCUGCAACAGAGGAUUGAGCAUCA
B10: chr9:14812383:14812384:-_ENSMUSG00000031934_ENSMUST00000164273|mus_mus|mus_mus_mus_hu_True|1_88 (ssRNA)
RNA: GGGAGUUCUACAGUCCGACGAUCAUAGCCCAGGUAGAUACACGCUAACAGUAUAACGAUGAGUGUCAGCAGGCGGCAGCUAAUGUACUUGAUGAUUAAAUUAUUAGAAUUUUUCUUUGUCUUCAAGUACUGCUCCACGAUUGGCAACAGAGGAUUGAGCAUCA
B11: 42628803_42628923_1299_3pUTR_ENSMUSG00000036667_ENSMUST00000045054|mouse|control|control (ssRNA)
RNA: GGGAGUUCUACAGUCCGACGAUCAUAGGUCCUUGUUCCUAUUUUAGGGGUACGGAAAGGUCCUGGAUUGAGACUCUGGCUUGUGAUGCUGAUACCAAAGGCAUUGAGGAGCAGGUUUCCUGGGAAUCGAGCCAGAGGGGACACCAACAGAGGAUUGAGCAUCA
B12: chr7:7679991:7679992:-_ENSG00000106399_ENST00000396682|hu_hu|hu_hu_hu_mus_False|58_88 (ssRNA)
RNA: GGGAGUUCUACAGUCCGACGAUCUGGGAUGAAUCUUUUCCAGCUUCCCUACGAAGCACACGGGCCGGUCGAUAUACUGAGCUAGCAUGCUGGCGUUGACGCGCGCUUUGGGGAGCUGCAUUAUGUCCUCCAUGAUUCUGCCGCCAACAGAGGAUUGAGCAUCA
B13: 4756694_4756814_1462_3pUTR_ENSMUSG00000044674_ENSMUST00000054294|mouse|control|control (ssRNA)
RNA: GGGAGUUCUACAGUCCGACGAUCCGCAGGGUGCGCCGCAGUCCUUCUCCCCCAGAAAGUGGUAGUUGAGGUAGGAGGGCACCCUGAGGGCGCGCGGGCAGGAGAACUUUCCCCGCUCCACCGUCCCGGCACCCCCCGGGUAGCCAACAGAGGAUUGAGCAUCA
B14: 15289965_15290085_3604_CDS_ENSG00000074181_ENST00000263388|human|control|control (ssRNA)
RNA: GGGAGUUCUACAGUCCGACGAUCUCCUGGGGGACAGGUGCAGCGGAAACCACCCACCAGGUCCACGCAGGUGCCAUUGUGUAGGCACCGGGGCCCUGAGUCCAGCGGUGGGCCUGGGCCGCAGUCAUCCUCAUUAAUCUCGCACAACAGAGGAUUGAGCAUCA

What follows are binders tested against T1, UNK ZnF1-3 (assay: nsRBNS (natural sequence RNA bind-n-seq); RBNS binding buffer (assumed for nsRBNS): 25 mM Tris pH 7.5, 150 mM KCl, 3 mM MgCl2, 0.01% Triton X-100, 500 ug/ml BSA, 20 U/ml SUPERase-In, 4 C; UNK is unkempt and MSI1 is Musashi-1; names of the RNAs are library labels; protein concentration not given here; high values mean tight binding).

Point of comparison: B14, binding signal 0.618 enrichment R. Against it:
- B1 — lower, 0.564 enrichment R
- B2 — higher, 1.25 enrichment R
- B3 — higher, 1.63 enrichment R
- B4 — lower, 0.605 enrichment R
- B5 — higher, 1.19 enrichment R
- B6 — higher, 0.869 enrichment R
- B7 — lower, 0.566 enrichment R
- B8 — higher, 0.902 enrichment R
- B9 — higher, 0.971 enrichment R
- B10 — higher, 1.27 enrichment R
- B11 — higher, 1.57 enrichment R
- B12 — lower, 0.553 enrichment R
- B13 — lower, 0.533 enrichment R
